{
  "source": "PubChem BioAssay AID686978",
  "about": "(National Center for Advancing Translational Sciences (NCATS), 2013)",
  "note": "Several values for one entry are separate records, joined by “and”; a condition that tells them apart may be missing. Identical values can stand only once. The whole screen tested about 420,000 compounds, of which about 64,000 (15%) were called active. The shares of active, inactive and inconclusive entries below differ from those in the screen. The call rests on the fitted dose curve; in most records, active means well fitted inhibition curve with a large enough effect; inconclusive means small, poorly fitted or top-dose-only effect; inactive means flat fitted curve, though single readings scatter. Where the call is inconclusive, the potency comes from a doubtful curve fit. On the % scale 0 is the no-effect control and ±100 the full control effect; potency means the concentration at half of the fitted maximal effect; tags describe the fitted curve by direction and shape.",
  "data": [
    {"test": "qHTS for Inhibitors of human tyrosyl-DNA phosphodiesterase 1 (TDP1): qHTS in cells in absence of CPT; further: nearly all actives have a fitted effect of over 55% in size", "conditions": "DT40 Tdp1-/- hTDP1 cells, no CPT, ATP luminescence, 48 h; activity change, negative = growth inhibition: at 46.2 µM (top of the series) unless noted", "summary_of_the_method": "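Seeded 400 DT40-hTDP1 cells/well (vehicle DMSO, no 20 nM CPT); pinned compounds; ≥48 hr at 37 °C; CellTiter-Glo luminescence as viability measure.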", "values": [
      {"compound": "COc1ccc(CCNC(=O)c2ccc(-c3ccc([N+](=O)[O-])cc3)o2)cc1OC", "Potency": "inconclusive: 29.1 µM [inhibitor, single point]"},
      {"compound": "COCCn1c(C)cc(C(=O)CSc2nc3ccccc3c(=O)n2C(C)COC)c1C", "note": "(stereo unspecified)", "Potency": "active: 9.2 µM"},
      {"compound": "C=CCc1cccc(CNc2ccc(Br)cc2)c1O", "Potency": "inconclusive: 16.4 µM [inhibitor, single point]"},
      {"compound": "CN(CC(O)COc1ccc(OCC(O)CN(C)C2CCCCC2)cc1)C1CCCCC1", "note": "(stereo unspecified)", "Potency": "inconclusive: 18.4 µM [inhibitor, single point]"},
      {"compound": "CN(Cc1ccccc1F)C(=O)CN1CCN(S(=O)(=O)c2ccc3c(c2)OCCCO3)CC1", "Potency": "inconclusive: 29.1 µM [inhibitor, single point]"},
      {"compound": "Cc1ccc(NC(=O)CN(C)S(=O)(=O)c2cccs2)c(Br)c1", "Potency": "inconclusive: 29.1 µM [inhibitor, single point]"},
      {"compound": "COc1ccc(-c2nnc(SCC(=O)c3ccco3)n2-c2ccccc2)cc1", "Potency": "inconclusive: 6.51 µM [inhibitor, full curve]"},
      {"compound": "CCOc1ccc(CCNC(=O)c2cccc(S(=O)(=O)N3CCCC3)c2)cc1OCC", "Potency": "inconclusive: 23.1 µM [inhibitor, single point]"},
      {"compound": "CCCC(O)c1nc2ccccc2n1CCCOc1ccc(Cl)cc1", "note": "(stereo unspecified)", "Potency": "active: 3.26 µM"},
      {"compound": "COc1cc(C(=O)NCC(c2ccc3c(c2)OCO3)N2CCOCC2)cc(OC)c1OC", "note": "(stereo unspecified)", "Potency": "inconclusive: 0.461 µM [inhibitor, single point]"},
      {"compound": "CC1(C)CC(=O)C(N=Nc2ccc(S(=O)(=O)N3CCOCC3)cc2)=C(O)C1", "activity change, negative = growth inhibition": "inactive: -18.6%"},
      {"compound": "CCc1ccc(C2CC(c3ccccc3)n3ncnc3N2)cc1", "note": "(stereo unspecified)", "activity change, negative = growth inhibition": "inactive: -28.9%"},
      {"compound": "O=S1(=O)CCN2C=C(Cl)C=C(Cl)C2=N1", "Potency": "inconclusive: 29.1 µM [inhibitor, single point]"},
      {"compound": "O=C(N/C(=C\\c1ccc(O)cc1)C(=O)N1CCCCC1)c1ccccc1", "activity change, negative = growth inhibition": "inactive: 12.8%"},
      {"compound": "O=C(Cc1cccc(NC(=O)C2CCCN(C(=O)c3ccccc3)C2)c1)Nc1ccc(C(=O)N2CCOCC2)cc1", "note": "(stereo unspecified)", "activity change, negative = growth inhibition": "inactive: -2.89%"},
      {"compound": "O=C(CCNC(=O)Cn1cnc2ccccc2c1=O)NCC1COc2ccccc2O1", "note": "(stereo unspecified)", "Potency": "inconclusive: 18.4 µM [inhibitor, single point]"},
      {"compound": "CCN1CCSc2ccc(C(=O)NCc3ccc(OC(C)C)cc3)cc21", "Potency": "inconclusive: 25.9 µM [inhibitor, single point] and inconclusive: 29.1 µM [inhibitor, single point]"},
      {"compound": "Cc1cc(Nc2ccc(Cl)cc2)nc(N)n1", "Potency": "inconclusive: 20.6 µM [inhibitor, single point]"},
      {"compound": "Fc1ccccc1-c1nnc2ccc3ccccc3n12", "Potency": "inconclusive: 5.17 µM [inhibitor, single point]"},
      {"compound": "CC(=O)c1cccc(Nc2nc(-c3cccnc3)cs2)c1", "Potency": "inconclusive: 14.6 µM [inhibitor, single point]"},
      {"compound": "CCc1nn(C)c(N)c1C", "activity change, negative = growth inhibition": "inactive: 2.91%"},
      {"compound": "Cc1ccc(O)c(NS(=O)(=O)c2cccc3nsnc23)c1", "Potency": "inconclusive: 18.4 µM [inhibitor, single point]"},
      {"compound": "Cc1ccc(Nc2nc3ccccc3s2)c(C)c1", "Potency": "inconclusive: 29.1 µM [inhibitor, single point]"},
      {"compound": "CC1=C(C(=O)Nc2ccc(Br)cc2)C(c2ccco2)NC(=O)N1", "note": "(stereo unspecified)", "Potency": "inconclusive: 35.5 µM [inhibitor, single point]"},
      {"compound": "Cc1ccc(N(CC(=O)NCc2ccccc2)C(=O)c2csnn2)cc1", "activity change, negative = growth inhibition": "inconclusive: -30.3% [inhibitor]"},
      {"compound": "Cc1[nH]n(S(=O)(=O)Cc2ccccc2)c(=O)c1N=Nc1ccccc1Cl", "activity change, negative = growth inhibition": "inactive: -22.1%"},
      {"compound": "COc1ccc(N(Cc2cc3ccccc3[nH]c2=O)C(=O)c2cccc(Cl)c2)cc1", "Potency": "active: 23.1 µM"},
      {"compound": "Cc1ccc(-c2cc(C(=O)NNC(=O)c3csc(N4CCOCC4)n3)c3ccccc3n2)cc1", "Potency": "inconclusive: 18.4 µM [inhibitor, single point]"},
      {"compound": "COc1ccc(C(=O)NC(C(=O)NCc2ccccn2)C(C)C)cc1", "note": "(stereo unspecified)", "activity change, negative = growth inhibition": "inactive: -6.9%"},
      {"compound": "Cc1ccc(NC(=O)c2c(C)cc(C)nc2SCC(=O)Nc2ccc(Br)cc2)cc1", "Potency": "inconclusive: 20.6 µM [inhibitor, single point]"},
      {"compound": "CCOc1ccccc1NC(=O)COC(=O)C1COc2ccccc2O1", "note": "(stereo unspecified)", "activity change, negative = growth inhibition": "inactive: -17.2%"},
      {"compound": "Cn1c(NN)nc2sc3c(c2c1=O)CC(C)(C)OC3", "Potency": "inconclusive: 29.1 µM [inhibitor, single point]"},
      {"compound": "CCC(C)(C)NC(=O)CN(CCc1cccc(C)c1)C(=O)c1csnn1", "activity change, negative = growth inhibition": "inactive: -12.5%"},
      {"compound": "N=C(N)SCCc1cccc(CCSC(=N)N)c1", "Potency": "active: 16.4 µM"},
      {"compound": "CC(C)c1ccc(NC2CCCN(C(=O)CCN3Cc4ccccc4C3=O)C2)cc1", "note": "(stereo unspecified)", "Potency": "inconclusive: 2.06 µM [inhibitor, full curve]"},
      {"compound": "Clc1cccc(Cl)c1Cn1c(-c2cccnc2Cl)nc2ccccc21", "Potency": "inconclusive: 23.1 µM [inhibitor, single point]"},
      {"compound": "CN(C)c1ccc(/C=N/NC(=O)c2nnn(-c3nonc3N)c2CN2CCCCCC2)cc1", "Potency": "inconclusive: 29.1 µM [inhibitor, single point]"},
      {"compound": "O=C(Cc1cccc2ccccc12)NCCOc1ccccc1F", "activity change, negative = growth inhibition": "inactive: -24.3%"},
      {"compound": "COc1ccc(-c2ccc(CN3C(CC(C)C)C(=O)N(Cc4cn(CCC5OCCCO5)nn4)CCS3(=O)=O)cc2)cc1OC", "note": "(stereo unspecified)", "Potency": "inconclusive: 29.1 µM [inhibitor, single point]"},
      {"compound": "Cc1ccc(NC(=S)N2CCCC2)cc1", "activity change, negative = growth inhibition": "inactive: -15.3%"},
      {"compound": "Oc1ccc(-c2csc(Nc3cccnc3)n2)cc1", "Potency": "active: 29.1 µM"},
      {"compound": "CCc1nc2ccc(C(=O)NCCc3ccccc3OC)cc2nc1CC", "Potency": "inconclusive: 29.1 µM [inhibitor, single point]"},
      {"compound": "COc1ccc(C2=Nn3c(nnc3-c3cccnc3)SC2)cc1OC", "activity change, negative = growth inhibition": "inactive: -29.1%"},
      {"compound": "COc1ccccc1Oc1ccc(S(=O)(=O)Nc2cccnc2)cc1", "Potency": "inconclusive: 16.4 µM [inhibitor, partial curve]"},
      {"compound": "COc1ccc(NC(=O)COC(=O)Cc2ccccc2[N+](=O)[O-])cc1OC", "Potency": "active: 25.9 µM"},
      {"compound": "CCC(c1nnnn1Cc1ccccc1)N(Cc1cc2cc(OC)ccc2[nH]c1=O)CC1CCCO1", "note": "(stereo unspecified)", "Potency": "inconclusive: 18.4 µM [inhibitor, single point]"}
    ]}
  ]
}
